# Hit rate of the full screen: of about 280,000 compounds, about 100 (0.036%) were called active. Inconclusive means that the source gave no clear call. Such entries were picked first, then a sample of the others. The call rests on the fitted dose curve; in most records, active means well fitted inhibition curve with a large enough effect in the signal ratio, with a control signal flat (not every such curve was filed as active); inconclusive means small, poorly fitted or top-dose-only effect, or effect the other way, or a change in a side signal; inactive means no such curve, though single readings can be large or run the other way; the % refers to the signal ratio. Where the call is inconclusive, the potency comes from a doubtful curve fit. A note “side channel” means that the fit belongs to a control or component signal, not to the main read-out.
# Target: Muscleblind-like protein 1 (Homo sapiens) (UniProt Q9NR56)
# Test: qHTS Assay for Inhibitors of MBNL1-poly(CUG) RNA binding
# Settings: TR-FRET MBNL1-His/biotin-(CUG)12 binding, 665/545 ratio; activity change, negative = inhibition: at 57.5 µM (top of the series)
# Procedure, shortened: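 Ratiometric TR-FRET (665 over 545 nm, excitation 340 nm) tracks disruption of MBNL1-His/biotin-(CUG)12 complex after 60 min at room temperature, with compounds at 92 nM to 58 uM final.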
# On the % scale 0 is the no-effect control and ±100 the full control effect; potency means the concentration at half of the fitted maximal effect; tags describe the fitted curve by direction and shape or compound fluorescence and quenching.
# Sequence of UniProt Q9NR56 (Q9NR56 whole entry, looked up): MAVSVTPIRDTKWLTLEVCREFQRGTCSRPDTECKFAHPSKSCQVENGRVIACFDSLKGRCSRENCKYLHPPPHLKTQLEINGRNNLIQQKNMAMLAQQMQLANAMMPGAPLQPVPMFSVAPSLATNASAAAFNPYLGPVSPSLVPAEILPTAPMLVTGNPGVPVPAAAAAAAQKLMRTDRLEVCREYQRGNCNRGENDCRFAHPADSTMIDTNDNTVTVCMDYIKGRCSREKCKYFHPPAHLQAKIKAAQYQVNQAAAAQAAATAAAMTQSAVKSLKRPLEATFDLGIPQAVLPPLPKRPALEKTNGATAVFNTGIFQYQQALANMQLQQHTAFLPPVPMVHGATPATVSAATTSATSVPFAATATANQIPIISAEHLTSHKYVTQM
Structure (SMILES),Potency,"activity change, negative = inhibition"
O=C(O)c1ccc(/C=C2\SC(=S)N(NC(=O)c3ccc(Br)cc3)C2=O)cc1,"inconclusive: 25.1 µM [quencher, side channel, single point]",
CC(C)(C)C(=O)[C@@H]1[C@@H]2C(=O)N(C3CCCCC3)C(=O)[C@@H]2[C@H]2c3ccccc3C=CN12,"inconclusive: 12.6 µM [quencher, side channel, single point]",
COc1ccc(C(=O)c2sc(Nc3ccccc3)nc2C)cc1,"inconclusive: 25.1 µM [quencher, side channel, single point]",
COc1ccccc1/C=C/C=N/NC(=O)c1ccc2nc[nH]c2c1,"inconclusive: 7.94 µM [quencher, side channel, partial curve]",
Cc1ccc(CCNC(=O)C2CCCN(S(=O)(=O)c3c(C)noc3/C=C/N(C)C)C2)cc1 (stereo unspecified),,inactive: -5.15%
CCN(CC)CCNc1ccc(CO)c2sc3ccccc3c(=O)c12,"inconclusive: 17.8 µM [quencher, side channel, partial curve]",
c1ccc2c(Nc3nnc(-c4ccncc4)s3)cccc2c1,"inconclusive: 22.4 µM [quencher, side channel, single point]",
CC1(C)Cc2c(sc3nc(=S)[nH]c(N)c23)CO1,,inactive: 18.6%
CC(=O)c1cccc(N2Cc3ccccc3C2=NC(=O)CCl)c1,"inconclusive: 31.6 µM [quencher, side channel, single point]",
Cc1ccc(C(C)NC(=S)NCc2ccc(F)cc2)cc1C (stereo unspecified),,inactive: -0.967%
CC1Cc2cc(-c3csc(NC(=O)Cc4cccs4)n3)ccc2N1S(C)(=O)=O (stereo unspecified),,inactive: -5.4%
Nc1ccc(O)c(-c2nc3ccccc3s2)c1,"inconclusive: 28.2 µM [quencher, side channel, single point]",
COc1cc(/C=C/C(=O)c2c(O)ccc3c(C)cc(=O)oc23)ccc1O,,inactive: 7.13%
COC(=O)C1=C(C(=O)OC)[C@@H]2N(Cc3ccccc3)c3ccccc3[C@@]23C[C@@H](C(=O)OC)N(C(=O)c2cccs2)C3=N1,,inactive: -3.95%
CN(C)c1ncnc2sc(-c3ccccc3)cc12,"inconclusive: 28.2 µM [quencher, partial curve]",
CC(=O)NC(Cc1ccccc1)C(=O)N1CCN(C(=O)c2cccs2)CC1 (stereo unspecified),,inactive: -7.8%
COc1ccc(CNC(=O)C(=O)NCCCn2ccnc2)cc1,"inconclusive: 6.31 µM [inhibitor, single point]",
CCn1nc(C)c(CN2CCN(Cc3cccc(OC)c3)C(CCO)C2)c1C (stereo unspecified),"inconclusive: 79.4 µM [inhibitor, partial curve, poor fit]",
O=C(CSc1nnc2ccc(-c3ccncc3)nn12)c1cccs1,"inconclusive: 12.6 µM [quencher, side channel, partial curve]",
Cc1ccc(/C=C2\SC(N3CCCC3)=NC2=O)cc1,"inconclusive: 12.6 µM [quencher, side channel, partial curve]",
COC(=O)c1ccccc1N=Nc1c(C)[nH][nH]c1=O,"inconclusive: 1.78 µM [quencher, side channel, full curve]",
CCOC(=O)c1c(N)sc2c1CCC(C)C2 (stereo unspecified),,inactive: -0.593%

Structure (SMILES),Potency,"activity change, negative = inhibition"
Cc1cc(C)c(C)c(OCC(=O)N2CCN(c3ccccn3)CC2)c1,,inactive: -1.07%
O=C(COC(=O)c1ccc([N+](=O)[O-])o1)Nc1cccc2ccccc12,"inconclusive: 11.2 µM [quencher, side channel, partial curve]",
O=C1C(=O)N(C/C=C/c2ccccc2)c2ccccc21,"inconclusive: 15.8 µM [quencher, side channel, partial curve]",
COc1ccc(NC(=O)COC(=O)CC2CC3CCC2C3)c([N+](=O)[O-])c1 (stereo unspecified),"inconclusive: 39.8 µM [quencher, single point]",
Oc1ccccc1CN1CCN(C(O)(c2ccccc2)c2ccccc2)CC1,,inactive: 8.76%
CC(C)CC(N)c1cn([C@@H](CCC(=O)O)C(=O)N2CCNCC2)nn1 (stereo partly specified),,inactive: 2.87%
CCOC(=O)N1CCC(NC(=O)c2ccc(N3CCC4(CC3)OCCO4)c([N+](=O)[O-])c2)CC1,"inconclusive: 11.2 µM [quencher, side channel, partial curve]",
Cc1cc(C)n(C(=O)c2cccc([N+](=O)[O-])c2C)n1,,inactive: 9.14%
COc1ccc(-n2nc(C#N)c(Cl)cc2=O)cc1,"inconclusive: 8.91 µM [quencher, side channel, partial curve]",
O=C(NCCc1ccccc1)C(NS(=O)(=O)c1cccc2nsnc12)c1ccccc1 (stereo unspecified),"inconclusive: 6.31 µM [quencher, side channel, partial curve]",
COCCCNCCOc1ccccc1-c1ccccc1,,inactive: -14.4%
CCOC(=O)CSC1=C(C#N)C(c2ccc(C)cc2)C2=C(CCCC2=O)N1 (stereo unspecified),"inconclusive: 31.6 µM [quencher, side channel, single point]",
Cc1ccccc1Cn1cnc2c(nnn2Cc2ccc(F)cc2)c1=O,,inactive: 1.94%
O=C(CSc1n[nH]c(=O)[nH]c1=O)N/N=C/C=C\c1ccccc1,"inconclusive: 14.1 µM [quencher, side channel, partial curve]",
CS(=O)(=O)NCCCNc1ccc(Cl)cc1[N+](=O)[O-],"inconclusive: 10 µM [quencher, side channel, partial curve]",
CCOC(=O)N1CCN(Cc2nc3cc(NC(=O)c4ccco4)ccc3n2C)CC1,,inactive: -3.15%
Oc1ccc(N=Nc2ccc(Br)cc2)c(O)c1,"inconclusive: 28.2 µM [quencher, side channel, single point]",
Cc1noc(C)c1COc1cccc(C(=O)OCC(=O)N2CC(=O)Nc3ccccc32)c1,,inactive: 1.72%
O=C(O)c1cccc2c(/C=N/Nc3ccccn3)c[nH]c12,"inconclusive: 39.8 µM [quencher, side channel, single point]",
COc1ccc(OCc2cc(C(=O)NC(C)Cc3cnccn3)no2)c(Cl)c1 (stereo unspecified),"inconclusive: 39.8 µM [inhibitor, single point]",
N/C(=N\OC(=O)c1ccccc1Cl)c1cccnc1,"inconclusive: 39.8 µM [quencher, side channel, single point]",
COc1ccccc1N1N=C(c2ccc([N+](=O)[O-])cc2)CC1c1ccccc1 (stereo unspecified),"inconclusive: 31.6 µM [quencher, side channel, partial curve]",

Structure (SMILES),Potency,"activity change, negative = inhibition"
COc1ccc(Nc2nc(-c3sc(C)nc3C)cs2)cc1,,inactive: 11.1%
O=C(C1=C(O)C(=O)N(CCOCCO)C1c1cccc([N+](=O)[O-])c1)c1cccs1 (stereo unspecified),"inconclusive: 17.8 µM [quencher, side channel, partial curve]",
CC(=O)OCCNc1cc(SC(C)C)c2nonc2c1[N+](=O)[O-],"inconclusive: 17.8 µM [quencher, side channel, partial curve]",
C[C@@H]1NC(=O)c2cc([N+](=O)[O-])cc(F)c2NCCC[C@@H](C(N)=O)NC(=O)[C@H](CC(N)=O)NC1=O,"inconclusive: 17.8 µM [quencher, side channel, partial curve]",
Cc1csc2nc(CSc3ccc(Cl)cc3)cn12,,inactive: 9.78%
CS(=O)(=O)N1CCN(c2c(Cl)cccc2[N+](=O)[O-])CC1,"inconclusive: 31.6 µM [quencher, side channel, single point]",
C/C(=N\NC(N)=O)C1CC(Cc2ccccc2)C(=O)O1 (stereo unspecified),,inactive: -0.488%
Cc1cccc(OCCN2CSC(=S)N(C)C2)c1,,inactive: 1.48%
Cc1nn(-c2ccccc2)c(C)c1/C=C1\C(=O)N(C)C(=S)N1C,"inconclusive: 31.6 µM [quencher, side channel, single point]",
COc1ccc(CN2CCN(c3ccccc3OC)CC2)cc1OC,"inconclusive: 39.8 µM [inhibitor, partial curve]",
Cc1c(/C=C/C(=O)c2ccc(Cl)s2)cnn1C,"inconclusive: 1 µM [quencher, side channel, full curve]",
c1ccc2c(c1)Nc1nccnc1S2,"inconclusive: 44.7 µM [quencher, side channel, single point]",
CC(C)CCn1c(CN2CCN(c3cccc(Cl)c3)CC2)nc2c1c(=O)n(C)c(=O)n2C,,inactive: -8.06%
COc1ccc(C(=O)NCC(=O)OCc2ccc([N+](=O)[O-])cc2)cc1,"inconclusive: 20 µM [quencher, side channel, single point]",
NS(=O)(=O)c1cccc(NS(=O)(=O)c2ccc(/C=C/C(=O)OCC(=O)c3ccccc3)cc2)c1,"inconclusive: 28.2 µM [quencher, side channel, single point]",
COc1ccc(N(C)C(=O)CCS(=O)(=O)c2cccc3nonc23)c(OC)c1,"inconclusive: 12.6 µM [quencher, side channel, partial curve]",
CCn1c(=O)c2cc(S(=O)(=O)NCCOc3ccccc3)ccc2n(CC)c1=O,"inconclusive: 126 µM [inhibitor, partial curve, poor fit]",
O=C1C(Cl)=C(NCCCO)C(=O)c2ccccc21,"inconclusive: 8.91 µM [quencher, side channel, partial curve]",
O=C1c2ccccc2C(=O)N1CC1c2ccccc2CCN1C(=O)CN1CCOCC1 (stereo unspecified),"inconclusive: 11.2 µM [quencher, side channel, partial curve]",
CC(=O)c1cccc(NC(=O)CN2CCN(Cc3ccccc3)CC2)c1,,inactive: 1.4%
CC(CCc1ccc(O)cc1)NCc1ccc(Br)cc1 (stereo unspecified),,inactive: -5.54%
CC(=O)c1ccc(NCC2COc3ccccc3O2)c([N+](=O)[O-])c1 (stereo unspecified),"inconclusive: 7.08 µM [quencher, side channel, partial curve]",

# From PubChem BioAssay AID2675 (National Center for Advancing Translational Sciences (NCATS), 2010)
